The supplement of paper PMC11417369
± gives the standard deviation of the averaged measurements. The list shows a part of the results.

tested on: PfAP2-LT AP2 domain (GST-tagged); experiment: gcPBM binding intensity (ln(normalized median fluorescence intensity)); higher = stronger DNA binding
Summary of the method: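 DNA-binding domains from P. falciparum, fused to GST and produced in E. coli, were put on an Agilent 4 × 180k double-stranded probe array for 1 h in 1× PBS holding 1% milk, 0.2 mg/ml BSA, 0.5% salmon testes DNA and 0.03% Triton X-100. Probes were primer-extended, 36 bp long and drawn from intergenic genomic regions, with negative controls included. After Alexa488 anti-GST antibody detection and a 488 nm scan, binding intensity was set as the highest Masliner-normalised natural-log median intensity across replicate spots of either probe orientation.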

Sequence	gcPBM binding intensity (ln)
GGTGGGGAGGAGTAATGTACAAATTAACATATTATG [XGTACX_site6666]	9.25 ± 0.13
CAAAACAAAACGTATGCACACAATTAAAATATTAAA [CACACA_site5815]	9.09 ± 0.4
AAATGTTGAGCAGTACAAAAAAAAAAAAAAAAAAAA [GTGCAC_negctrl_site518]	8.55 ± 0.55
CATTTATATAAAAGAACACACATATAAAATATTATT [CACACA_site3601]	8.82 ± 0.43
TTTTTTTTTTAATTGGGTACATATATAATTTAAGAA [XGTACX_site2732]	8.1 ± 0.2
AAGATACCAATGAAATGTACATATATATAAATATAA [XGTACX_site2135]	8.9 ± 0.36
TATATATTATAAAATTGTACATATATTAAATTTTTT [XGTACX_site5852]	8.32 ± 0.46
TAACTAATATATAAAACACACATCATAAAAATATAA [CACACA_site768]	8.97 ± 0.45
TTTTGTTGAAAAGTAAGATATTCCAACATGTTTTTA [CACACA_negctrl_site391]	8.52 ± 0.43
AGCAAAACATAAAATAGTACACATTTAACAAAAAAA [XGTACX_site2921]	8.88 ± 0.57
AAAAGAACAATGAAGTGTACTAATAATTATTTATGT [XGTACX_site6649]	8.88 ± 0.36
TTTTATCATCTTTTTACATTATGTATAAATATTTTC [CACACA_negctrl_site206]	8.74 ± 0.52
ATATAATATATTTTTGAACACACAATATATATATAT [CACACA_site9368]	8.79 ± 0.3
ACACATAAATGAATAAATAAATAAATATAAATATAA [CACACA_negctrl_site1784]	8.89 ± 0.47
ATATCATTTTCCTGCACACATAAATTTATATAATAT [CACACA_site1048]	9.21 ± 0.32
AAAATAAAAGAATAAAAATATGAAACTTTTTTAAAA [GTGCAC_negctrl_site348]	8.31 ± 0.61
AACGTGTGGAGAATTATAAATGAGTAAAAAATATAT [XGTACX_negctrl_site562]	9.04 ± 0.5
GGGGGGAGGGTGAATACACACGTAATAATCATAAAC [CACACA_site8502]	9.93 ± 0.28
ATTAAATAAAAAAACACACACATATATACCTATATA [CACACA_site5837]	9.41 ± 0.3
AATAAAACATAATAATGTACTCAAAGGTTTAACTTG [XGTACX_site4711]	8.71 ± 0.49
CAAAACATTTTATCTACACACATATATAAATAAATA [CACACA_site3220]	8.88 ± 0.38
AAAAATGAAAGTAAGACATGCATGGAATTTTTTTTA [TGCATGCA_site347]	8.95 ± 0.36

Sequence	gcPBM binding intensity (ln)
TTTTTTTTTTATGAAAGTACATATGAAAAATACGAA [XGTACX_site3451]	8.18 ± 0.44
ATATATGTGTATGTATGTACTTATATTTTTTTTTAT [XGTACX_site1733]	8.88 ± 0.49
GCAAATCAATTTTTTTTTAAAACTCATTTTTTCGTT [CACACA_negctrl_site1136]	8.69 ± 0.52
TCCGTTATATATGTGTGTACATATAATATATCCTCA [XGTACX_site2588]	9.11 ± 0.4
TTCATACATATTTGAAGTACATTTAAAAATGTCCTT [XGTACX_site747]	8.55 ± 0.53
TCCAATATATTTATGAGTACTTATAAATTATACGTT [XGTACX_site742]	8.81 ± 0.41
GAAGTAATTTCATATACACACATATACATACATACA [CACACA_site6753]	9.13 ± 0.38
ATATATATATATGTATGTACGTATGTATTTACTGCT [XGTACX_site3839]	9.57 ± 0.2
ATTGTGTTAATAAAATGTACATTTTCTCTACATTAA [XGTACX_site2766]	8.85 ± 0.38
TATTTATAATTATAATAATATATATATATATATATA [TGCATGCA_negctrl_site173]	8.6 ± 0.3
TTTGAATAAAAACAAAAAATTAAATTAAATTAAATA [CACACA_negctrl_site312]	8.12 ± 0.45
ATTAAAAAAAATATATATGTATAAAACAAGCAAAAT [XGTACX_negctrl_site474]	8.89 ± 0.47
ATAAAAAAAAATAACACACAGACATAAGAATAAATA [CACACA_site4162]	9.25 ± 0.44
TAGCCATTTTTATATTGTACTTATATAATCACATTT [XGTACX_site4407]	8.8 ± 0.45
ATATAAGAAAAGCACACACACACAAAAAAAAAAAAA [CACACA_site2827]	10.1 ± 0.42
GACCACTTTAGGATTTGTACACATATTATATATGCA [XGTACX_site6579]	9.05 ± 0.41
ATTAAAAAAATTGGCACACATAAAAATATATAAAAA [CACACA_site2748]	8.86 ± 0.49
AACAGATATGAATAGAAAAAAAAAAATGGCCCATAT [TGCATGCA_negctrl_site443]	8.65 ± 0.47
GTTTTTAATGTTTTGACATGCAATATTAAAAATAAT [TGCATGCA_site174]	8.37 ± 0.43
TGAAAAAAAAAATACACACACGAGTTGTTATACATA [CACACA_site7486]	9.09 ± 0.43
TTTTGATAGAAGTGTTCTAGGAATTCAACTGTAATA [GTGCAC_negctrl_site585]	8.44 ± 0.46
TATAATGATAATAATAGTACACATTAGAACGGGAGG [XGTACX_site2563]	9.03 ± 0.42
